# Reference: patent US20240254223A1 (NOVIMMUNE, published 2024)
# T1: low-moderate affinity dimeric IL-2R (IL-2Rβ and IL-2Rγ) on HEK-Blue CD122/CD132 cells (UniProt P14784 27-551; P31785 23-369, limits assumed)
# T1 sequence (looked up) 1: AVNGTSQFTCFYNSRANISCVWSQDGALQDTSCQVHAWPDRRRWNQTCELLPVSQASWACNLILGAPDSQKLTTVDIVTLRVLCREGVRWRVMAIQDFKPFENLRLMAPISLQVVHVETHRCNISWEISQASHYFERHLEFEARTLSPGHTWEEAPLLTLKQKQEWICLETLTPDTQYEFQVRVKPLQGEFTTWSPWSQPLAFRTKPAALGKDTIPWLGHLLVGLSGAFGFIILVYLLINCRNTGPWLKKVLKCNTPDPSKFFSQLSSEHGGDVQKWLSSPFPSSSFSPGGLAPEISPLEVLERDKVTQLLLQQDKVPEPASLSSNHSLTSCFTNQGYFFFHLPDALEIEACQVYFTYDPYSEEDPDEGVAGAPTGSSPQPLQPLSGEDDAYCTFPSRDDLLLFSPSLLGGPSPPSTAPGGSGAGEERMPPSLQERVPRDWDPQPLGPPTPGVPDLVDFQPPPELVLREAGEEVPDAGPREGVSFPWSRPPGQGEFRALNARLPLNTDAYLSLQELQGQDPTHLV
# T1 sequence (looked up) 2: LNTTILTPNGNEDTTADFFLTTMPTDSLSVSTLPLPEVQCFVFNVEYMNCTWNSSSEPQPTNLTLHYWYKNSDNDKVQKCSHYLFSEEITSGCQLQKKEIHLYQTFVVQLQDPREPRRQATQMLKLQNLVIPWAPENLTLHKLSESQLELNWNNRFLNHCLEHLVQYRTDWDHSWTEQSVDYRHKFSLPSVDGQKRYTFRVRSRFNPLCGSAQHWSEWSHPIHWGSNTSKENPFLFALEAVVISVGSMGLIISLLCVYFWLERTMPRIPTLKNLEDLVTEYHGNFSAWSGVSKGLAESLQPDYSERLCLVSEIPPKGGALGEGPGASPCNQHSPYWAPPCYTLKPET
# T2: high affinity trimeric IL-2R (IL-2Rα, IL-2Rβ and IL-2Rγ) on HEK-Blue IL-2 cells (UniProt P01589 22-272; P14784 27-551; P31785 23-369)
# T2 sequence (looked up) 1: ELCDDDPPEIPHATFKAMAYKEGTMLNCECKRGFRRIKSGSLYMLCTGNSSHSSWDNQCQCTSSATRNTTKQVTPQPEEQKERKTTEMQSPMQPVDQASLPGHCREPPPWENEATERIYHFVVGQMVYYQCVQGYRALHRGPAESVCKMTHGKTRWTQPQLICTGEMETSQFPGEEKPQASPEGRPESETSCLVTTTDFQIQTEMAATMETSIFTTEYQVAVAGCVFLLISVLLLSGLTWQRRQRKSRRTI
# T2 sequence (looked up) 2: T1 sequence (looked up) 1
# T2 sequence (looked up) 3: T1 sequence (looked up) 2
# B1: pNOVI V2K K91_E6_IL-2Rα_1_238_CM1_IL-2_21_153_CM1 VKCK IL-2Rβ_1_239_CM1_VHCH (antibody, human IgG1, kappa)
# light: ELCDDDPPEIPHATFKAMAYKEGTMLNCECKRGFRRIKSGSLYMLCTGNSSHSSWDNQCQCTSSATRNTTKQVTPQPEEQKERKTTEMQSPMQPVDQASLPGHCREPPPWENEATERIYHFVVGQMVYYQCVQGYRALHRGPAESVCKMTHGKTRWTQPQLICTGEMETSQFPGEEKPQASPEGRPESETSCLVTTTDFQIQTEMAATMETSIFTTEGGGGSVHMPLGFLGPGGGGS[about 150 residues left out]GGGGSVHMPLGFLGPGGSDIQMTQSPSSLSASVGDRVTITCNVDQVIANWLNWYQQKPGKAPKLLIYAASSLQSGVPSRFSGSGSGTDFTLTISSLQPEDFATYYCQQMHPRAPKQFGQGTKVEIKRTVAAPSVFIFPPSDEQLKSGTASVVCLLNNFYPREAKVQWKVDNALQSGNSQESVTEQDSKDSTYSLSSTLTLSKADYEKHKVYACEVTHQGLSSPVTKSFNRGEC
# heavy: AVNGTSQFTCFYNSRANISCVWSQDGALQDTSCQVHAWPDRRRWNQTCELLPVSQASWACNLILGAPDSQKLTTVDIVTLRVLCREGVRWRVMAIQDFKPFENLRLMAPISLQVVHVETHRCNISWEISQASHYFERHLEFEARTLSPGHTWEEAPLLTLKQKQEWICLETLTPDTQYEFQVRVKPLQGEFTTWSPWSQPLAFRTKPAALGKDGGGGSVHMPLGFLGPGGS[about 120 residues left out][about 100 residues left out][human IgG1 Fc left out]
# notes: masked K91 fusion, uncleaved; also called n651; construct No 651
# B2: pNOVI V2K K33_E6_IL-2Rα_1_238_CM1_IL-2_21_153_CM1 VKCK IL-2Rβ_1_239_CM1_VHCH (antibody, human IgG1, kappa)
# light: ELCDDDPPEIPHATFKAMAYKEGTMLNCECKRGFRRIKSGSLYMLCTGNSSHSSWDNQCQCTSSATRNTTKQVTPQPEEQKERKTTEMQSPMQPVDQASLPGHCREPPPWENEATERIYHFVVGQMVYYQCVQGYRALHRGPAESVCKMTHGKTRWTQPQLICTGEMETSQFPGEEKPQASPEGRPESETSCLVTTTDFQIQTEMAATMETSIFTTEGGGGSVHMPLGFLGPGGGGS[about 150 residues left out]GGGGSVHMPLGFLGPGGSDIQMTQSPSSLSASVGDRVTITCRASQSISSYLNWYQQKPGKAPKLLIYAASSLQSGVPSRFSGSGSGTDFTLTISSLQPEDFATYYCQQFHKRSPQKFGQGTKVEIKRTVAAPSVFIFPPSDEQLKSGTASVVCLLNNFYPREAKVQWKVDNALQSGNSQESVTEQDSKDSTYSLSSTLTLSKADYEKHKVYACEVTHQGLSSPVTKSFNRGEC
# heavy: AVNGTSQFTCFYNSRANISCVWSQDGALQDTSCQVHAWPDRRRWNQTCELLPVSQASWACNLILGAPDSQKLTTVDIVTLRVLCREGVRWRVMAIQDFKPFENLRLMAPISLQVVHVETHRCNISWEISQASHYFERHLEFEARTLSPGHTWEEAPLLTLKQKQEWICLETLTPDTQYEFQVRVKPLQGEFTTWSPWSQPLAFRTKPAALGKDGGGGSVHMPLGFLGPGGS[about 120 residues left out][about 100 residues left out][human IgG1 Fc left out]
# notes: masked K33 fusion, uncleaved; also called n830; construct No 830
# B3: pNOVI V2K K91_M1_IL-2Rα_1_238_CM1_IL-2 C125S_21_153_CM1 VKCK IL-2Rβ_1_239_CM1_VHCH (antibody, human IgG1, kappa)
# light: ELCDDDPPEIPHATFKAMAYKEGTMLNCECKRGFRRIKSGSLYMLCTGNSSHSSWDNQCQCTSSATRNTTKQVTPQPEEQKERKTTEMQSPMQPVDQASLPGHCREPPPWENEATERIYHFVVGQMVYYQCVQGYRALHRGPAESVCKMTHGKTRWTQPQLICTGEMETSQFPGEEKPQASPEGRPESETSCLVTTTDFQIQTEMAATMETSIFTTEGGGGSVHMPLGFLGPGGGGS[about 150 residues with changes left out]GGGGSVHMPLGFLGPGGSDIQMTQSPSSLSASVGDRVTITCNVDQVIANWLNWYQQKPGKAPKLLIYAASSLQSGVPSRFSGSGSGTDFTLTISSLQPEDFATYYCQQMHPRAPKQFGQGTKVEIKRTVAAPSVFIFPPSDEQLKSGTASVVCLLNNFYPREAKVQWKVDNALQSGNSQESVTEQDSKDSTYSLSSTLTLSKADYEKHKVYACEVTHQGLSSPVTKSFNRGEC
# heavy: AVNGTSQFTCFYNSRANISCVWSQDGALQDTSCQVHAWPDRRRWNQTCELLPVSQASWACNLILGAPDSQKLTTVDIVTLRVLCREGVRWRVMAIQDFKPFENLRLMAPISLQVVHVETHRCNISWEISQASHYFERHLEFEARTLSPGHTWEEAPLLTLKQKQEWICLETLTPDTQYEFQVRVKPLQGEFTTWSPWSQPLAFRTKPAALGKDGGGGSVHMPLGFLGPGGS[about 120 residues left out][about 100 residues left out][human IgG1 Fc left out]
# notes: masked K91 fusion with IL-2 C125S, uncleaved; also called n770; construct No 770
# What was measured:
# [1] = molecular target: T3, CD47 at the surface of Peak cells (human, UniProt Q08722); test: flow cytometry, Peak cells, before cleavage
# T3 construct: whole, on cells; also called cell surface CD47
# [2] = molecular target: T3, CD47 at the surface of Peak cells; test: flow cytometry, Peak cells; EC50 before / EC50 after cleavage
# [3] = molecular target: T1, low-moderate affinity dimeric IL-2R …; test: cell-based or functional assay
# [4] = molecular target: T4, His-tagged human CD47 (human, UniProt Q08722 partial chain, limits assumed); test: BLI, His-CD47 on HIS1K sensor, antibody 15 µg/mL
# T4 construct: loaded on HIS1K biosensors at 2.5 µg/mL; also called target antigen; not shown: His tag
# [5] = molecular target: T2, high affinity trimeric IL-2R (IL-2Rα, …); test: cell-based or functional assay
Binder,EC50 [1],Binding recovery (BC/AC) [2],"EC50 before cleavage IL-2, HEK Blue IL-2 βγ reporter assay [3]","EC50 ratio (BC/AC), HEK Blue IL-2 βγ reporter assay [3]",Binding before cleavage (BLI) [4],"EC50 before cleavage IL-2, HEK Blue IL-2 αβγ reporter assay [5]","EC50 ratio (BC/AC), HEK Blue IL-2 αβγ reporter assay [5]"
B1,68.3 nM,95,0.24 nM,24,0.4 nm,0.29 nM,18
B2,,,1.74 nM,147,0.6 nm,0.33 nM,38
B3,54.4 nM,106,0.22 nM,19,0.4 nm,1.29 nM,75
